pIC50: −log10 of the molar value. A lower IC50 marks a more sensitive line; a limit (>, <) means that the fit lies beyond the doses tested. The AUC spans the tested range (256-fold, ending at the top dose) of the same fit: 1 means no effect, lower means more sensitive. Any top dose called inferred comes from the curve model; the source does not state it.
Legend:
FK866 = compound: O=C(/C=C/c1cccnc1)NCCCCC1CCN(C(=O)c2ccccc2)CC1 [FK866]; assay: Viability of human cancer cell lines after 72 h of drug (GDSC screen); conditions: top dose 1 µM; top dose inferred
Method: (§1)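 Human cancer cell lines in 384-well plates, medium with 10% serum, drug for 72 h over a 256-fold dose range (nine 2-fold or five 4-fold steps up to the top dose). Adherent lines were fixed and stained with the nucleic acid dye Syto60, suspension lines read with resazurin; signal relative to control wells, capped at 0 and 100%. One two-parameter sigmoid per drug and line, fitted in a mixed model over all curves with the slope shared within a line.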

FR-180204 = compound: Nc1[nH]nc2nnc(-c3c(-c4ccccc4)nn4ccccc34)cc12 [FR-180204]; assay: as above; conditions: top dose 20 µM; top dose inferred
Method: as §1

MOLM-13 (acute myeloid leukaemia, suspension)
AUC (FK866): 0.052
pIC50 (FK866): > 8.41
AUC (FR-180204): 0.755
pIC50 (FR-180204): 5.19

MOLP-8 (myeloma, suspension)
AUC (FK866): 0.063
pIC50 (FK866): > 8.41
AUC (FR-180204): 0.91
pIC50 (FR-180204): < 4.70

MOLT-4 (lymphoblastic leukaemia, suspension)
AUC (FK866): 0.029
pIC50 (FK866): > 8.41
AUC (FR-180204): 0.974
pIC50 (FR-180204): < 4.70

MOLT-13 (T-cell lymphoblastic leukaemia, suspension)
AUC (FK866): 0.047
pIC50 (FK866): > 8.41
AUC (FR-180204): 0.948
pIC50 (FR-180204): < 4.70

MONO-MAC-6 (acute myeloid leukaemia, suspension)
AUC (FK866): 0.071
pIC50 (FK866): > 8.41
AUC (FR-180204): 0.914
pIC50 (FR-180204): < 4.70

MPP-89 (mesothelioma, adherent)
AUC (FK866): 0.846
pIC50 (FK866): < 6.00
AUC (FR-180204): 0.975
pIC50 (FR-180204): < 4.70

MRK-nu-1 (breast, suspension)
AUC (FK866): 0.343
pIC50 (FK866): 7.62
AUC (FR-180204): 0.986
pIC50 (FR-180204): < 4.70

MS751 (cervix, adherent)
AUC (FK866): 0.788
pIC50 (FK866): 6.40
AUC (FR-180204): 0.99
pIC50 (FR-180204): < 4.70

MS-1 (small cell lung carcinoma, suspension)
AUC (FK866): 0.064
pIC50 (FK866): > 8.41
AUC (FR-180204): 0.975
pIC50 (FR-180204): < 4.70

MV-4-11 (leukaemia, suspension)
AUC (FK866): 0.032
pIC50 (FK866): > 8.41
AUC (FR-180204): 0.897
pIC50 (FR-180204): 4.77

MZ1-PC (pancreas, adherent)
AUC (FK866): 0.729
pIC50 (FK866): 6.48
AUC (FR-180204): 0.868
pIC50 (FR-180204): < 4.70

MZ2-MEL (melanoma, adherent)
AUC (FK866): 0.355
pIC50 (FK866): 7.64
AUC (FR-180204): 0.961
pIC50 (FR-180204): < 4.70

MZ7-mel (melanoma, adherent)
AUC (FK866): 0.898
pIC50 (FK866): < 6.00
AUC (FR-180204): 0.863
pIC50 (FR-180204): 4.74

Mewo (melanoma, adherent)
AUC (FK866): 0.452
pIC50 (FK866): 7.35
AUC (FR-180204): 0.983
pIC50 (FR-180204): < 4.70

Mo-T (hairy cell leukaemia, suspension)
AUC (FK866): 0.849
pIC50 (FK866): 6.11
AUC (FR-180204): 0.957
pIC50 (FR-180204): < 4.70

NAMALWA (Burkitt lymphoma, suspension)
AUC (FK866): 0.023
pIC50 (FK866): > 8.41
AUC (FR-180204): 0.989
pIC50 (FR-180204): < 4.70

NB1 (neuroblastoma, semi-adherent)
AUC (FK866): 0.138
pIC50 (FK866): > 8.41
AUC (FR-180204): 0.928
pIC50 (FR-180204): < 4.70

NB5 (neuroblastoma, adherent)
AUC (FK866): 0.039
pIC50 (FK866): > 8.41
AUC (FR-180204): 0.892
pIC50 (FR-180204): < 4.70

NB6 (neuroblastoma, adherent)
AUC (FK866): 0.908
pIC50 (FK866): < 6.00
AUC (FR-180204): 0.979
pIC50 (FR-180204): < 4.70

NB7 (neuroblastoma, adherent)
AUC (FK866): 0.463
pIC50 (FK866): 7.31
AUC (FR-180204): 0.984
pIC50 (FR-180204): < 4.70

NB10 (neuroblastoma, adherent)
AUC (FK866): 0.028
pIC50 (FK866): > 8.41
AUC (FR-180204): 0.979
pIC50 (FR-180204): < 4.70

NB12 (neuroblastoma, adherent)
AUC (FK866): 0.579
pIC50 (FK866): 6.95
AUC (FR-180204): 0.958
pIC50 (FR-180204): < 4.70

NB13 (neuroblastoma, adherent)
AUC (FK866): 0.042
pIC50 (FK866): > 8.41
AUC (FR-180204): 0.973
pIC50 (FR-180204): < 4.70

NB(TU)1-10 (neuroblastoma, adherent)
AUC (FK866): 0.161
pIC50 (FK866): 8.15
AUC (FR-180204): 0.92
pIC50 (FR-180204): < 4.70

NB-4 (acute myeloid leukaemia, suspension)
AUC (FK866): 0.017
pIC50 (FK866): > 8.41
AUC (FR-180204): 0.918
pIC50 (FR-180204): < 4.70

NCC021 (kidney, adherent)
AUC (FK866): 0.97
pIC50 (FK866): < 6.00
AUC (FR-180204): 0.967
pIC50 (FR-180204): < 4.70

NCI-H23 (lung adenocarcinoma, adherent)
AUC (FK866): 0.22
pIC50 (FK866): 8.02
AUC (FR-180204): 0.988
pIC50 (FR-180204): < 4.70

NCI-H28 (mesothelioma, adherent)
AUC (FK866): 0.852
pIC50 (FK866): < 6.00
AUC (FR-180204): 0.971
pIC50 (FR-180204): < 4.70

NCI-H69 (small cell lung carcinoma, suspension)
AUC (FK866): 0.149
pIC50 (FK866): 8.36
AUC (FR-180204): 0.984
pIC50 (FR-180204): < 4.70

NCI-H187 (small cell lung carcinoma, suspension)
AUC (FK866): 0.983
pIC50 (FK866): < 6.00
AUC (FR-180204): 0.988
pIC50 (FR-180204): < 4.70

NCI-H196 (small cell lung carcinoma, adherent)
AUC (FK866): 0.935
pIC50 (FK866): < 6.00
AUC (FR-180204): 0.988
pIC50 (FR-180204): < 4.70

NCI-H209 (small cell lung carcinoma, suspension)
AUC (FK866): 0.064
pIC50 (FK866): > 8.41
AUC (FR-180204): 0.969
pIC50 (FR-180204): < 4.70
